Patent publication US20230141575A1 (CITY OF HOPE, published 2023)

B1: 1215-1045 null (IL-15_linker1_HC Fab_linker2_IL-15Ra and LC Fab) (other)
heavy: [about 120 residues cut from this listing]GGVPLSLYSGG[about 120 residues cut from this listing]ASTKGPSVFPLAPSSKSTSGGTAALGCLVKDYFPEPVTVSWNSGALTSGVHTFPAVLQSSGLYSLSSVVTVPSSSLGTQTYICNVNHKPSNTKVDKKVEPKSCGGGSGAGAGITCPPPMSVEHADIWVKSYSLYSRERYICNSGFKRKAGTSSLTECVLNKATNVAHWTTPSLKCIRDPALVHQRPAPPS
light: DIQMTQSPILLSASVGDRVTITCRASQDVNTAVAWYQQRTNGSPRLLIYSASFLYSGVPSRFSGSRSGTDFTLTISSLQPEDIADYYCQQHYTTPPTFGAGTKVEIKRTVAAPSVFIFPPSDEQLKSGTASVVCLLNNFYPREAKVQWKVDNALQSGNSQESVTEQDSKDSTYSLSSTLTLSKADYEKHKVYACEVTHQGLSSPVTKSFNRGEC
notes: Fab-cytokine fusion, not treated with MMP ('null'); also called IL-15-Fab complex 1215-1045
B2: 1215-1046 null (IL-15_linker1_HC Fab_linker2_IL-15Ra and LC Fab, non-cleavable linker) (other)
heavy: [about 120 residues cut from this listing]GGSPSGASGS[about 120 residues cut from this listing]ASTKGPSVFPLAPSSKSTSGGTAALGCLVKDYFPEPVTVSWNSGALTSGVHTFPAVLQSSGLYSLSSVVTVPSSSLGTQTYICNVNHKPSNTKVDKKVEPKSCGGGSGAGAGITCPPPMSVEHADIWVKSYSLYSRERYICNSGFKRKAGTSSLTECVLNKATNVAHWTTPSLKCIRDPALVHQRPAPPS
light: DIQMTQSPILLSASVGDRVTITCRASQDVNTAVAWYQQRTNGSPRLLIYSASFLYSGVPSRFSGSRSGTDFTLTISSLQPEDIADYYCQQHYTTPPTFGAGTKVEIKRTVAAPSVFIFPPSDEQLKSGTASVVCLLNNFYPREAKVQWKVDNALQSGNSQESVTEQDSKDSTYSLSSTLTLSKADYEKHKVYACEVTHQGLSSPVTKSFNRGEC
notes: Fab-cytokine fusion with a non-cleavable linker 1
B3: 1215-1047 null (IL-15_linker1_HC Fab_linker2_IL-15Ra and LC Fab, Cys mutations IL-15Ra-P67C, IL-15-E90C) (other)
heavy: [about 120 residues cut from this listing]GGVPLSLYSGG[about 120 residues cut from this listing]ASTKGPSVFPLAPSSKSTSGGTAALGCLVKDYFPEPVTVSWNSGALTSGVHTFPAVLQSSGLYSLSSVVTVPSSSLGTQTYICNVNHKPSNTKVDKKVEPKSCGGGSGAGAGITCPPPMSVEHADIWVKSYSLYSRERYICNSGFKRKAGTSSLTECVLNKATNVAHWTTPSLKCIRDCALVHQRPAPPS
light: DIQMTQSPILLSASVGDRVTITCRASQDVNTAVAWYQQRTNGSPRLLIYSASFLYSGVPSRFSGSRSGTDFTLTISSLQPEDIADYYCQQHYTTPPTFGAGTKVEIKRTVAAPSVFIFPPSDEQLKSGTASVVCLLNNFYPREAKVQWKVDNALQSGNSQESVTEQDSKDSTYSLSSTLTLSKADYEKHKVYACEVTHQGLSSPVTKSFNRGEC
notes: Fab-cytokine fusion, not treated with MMP; The cysteines at IL-15 position 90 and IL-15Ra position 67 are meant to form a disulfide bond between IL-15 and the sushi domain
B4: 1215-1048 null (IL-15_linker1_HC Fab_linker2_IL-15Ra and LC Fab, non-cleavable linker, Cys mutations IL-15Ra-P67C, IL-15-E90C) (other)
heavy: [about 120 residues cut from this listing]GGSPSGASGS[about 120 residues cut from this listing]ASTKGPSVFPLAPSSKSTSGGTAALGCLVKDYFPEPVTVSWNSGALTSGVHTFPAVLQSSGLYSLSSVVTVPSSSLGTQTYICNVNHKPSNTKVDKKVEPKSCGGGSGAGAGITCPPPMSVEHADIWVKSYSLYSRERYICNSGFKRKAGTSSLTECVLNKATNVAHWTTPSLKCIRDCALVHQRPAPPS
light: DIQMTQSPILLSASVGDRVTITCRASQDVNTAVAWYQQRTNGSPRLLIYSASFLYSGVPSRFSGSRSGTDFTLTISSLQPEDIADYYCQQHYTTPPTFGAGTKVEIKRTVAAPSVFIFPPSDEQLKSGTASVVCLLNNFYPREAKVQWKVDNALQSGNSQESVTEQDSKDSTYSLSSTLTLSKADYEKHKVYACEVTHQGLSSPVTKSFNRGEC
notes: Fab-cytokine fusion with a non-cleavable linker 1 and the Cys mutations

Biological target: T1, IL-15 receptor subunit β (IL-15Rβ)-Fc (UniProt P14784 27-239)
T1 construct: also called IL-15R13-Fc; IL-2/15β receptor; not shown: Fc part
T1 sequence (looked up): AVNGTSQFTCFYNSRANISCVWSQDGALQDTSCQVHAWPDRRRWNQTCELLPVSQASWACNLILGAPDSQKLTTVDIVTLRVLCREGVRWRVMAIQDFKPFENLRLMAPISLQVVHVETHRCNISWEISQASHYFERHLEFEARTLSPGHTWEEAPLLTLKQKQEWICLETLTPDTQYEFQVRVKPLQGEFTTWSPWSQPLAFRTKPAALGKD
Assay: SPR, IL-15Rβ-Fc immobilized on chip

B1 and B2 are within 1.5-fold of each other in Kd: 21.9 nM for the first, 20.5 nM for the second.

B3 and B4 are within 1.5-fold of each other in Kd: 22.9 nM for the first, 33.4 nM for the second.

B1 and B2 are within 1.5-fold of each other in koff: 0.00256 s⁻¹ for the first, 0.00308 s⁻¹ for the second.

First: B3
Second: B4
The koff of the first is 1.7-fold lower: 0.00375 s⁻¹ for the first, 0.00632 s⁻¹ for the second.

B1 and B2 are within 1.5-fold of each other in kon: 117000 M⁻¹ s⁻¹ for the first, 150000 M⁻¹ s⁻¹ for the second.

B3 and B4 are within 1.5-fold of each other in kon: 164000 M⁻¹ s⁻¹ for the first, 189000 M⁻¹ s⁻¹ for the second.
